Measurements published in the supplement of paper PMC3334620.
Whole data set: some 33,000 sequences, median “E-score (-0.5 to 0.5)” near -0.012, cut for the highest 2% near 0.29. The list shows a part of the results.

target: T1, Ybr033w (UniProt P38073); experiment: PBM E-score (8-mer binding enrichment) (E-score (-0.5 to 0.5)); higher = stronger / more preferred TF binding; most listed sequences are background and not binding sites; conditions: protein concentration: 200 nM; construct: GST-full length
T1 sequence: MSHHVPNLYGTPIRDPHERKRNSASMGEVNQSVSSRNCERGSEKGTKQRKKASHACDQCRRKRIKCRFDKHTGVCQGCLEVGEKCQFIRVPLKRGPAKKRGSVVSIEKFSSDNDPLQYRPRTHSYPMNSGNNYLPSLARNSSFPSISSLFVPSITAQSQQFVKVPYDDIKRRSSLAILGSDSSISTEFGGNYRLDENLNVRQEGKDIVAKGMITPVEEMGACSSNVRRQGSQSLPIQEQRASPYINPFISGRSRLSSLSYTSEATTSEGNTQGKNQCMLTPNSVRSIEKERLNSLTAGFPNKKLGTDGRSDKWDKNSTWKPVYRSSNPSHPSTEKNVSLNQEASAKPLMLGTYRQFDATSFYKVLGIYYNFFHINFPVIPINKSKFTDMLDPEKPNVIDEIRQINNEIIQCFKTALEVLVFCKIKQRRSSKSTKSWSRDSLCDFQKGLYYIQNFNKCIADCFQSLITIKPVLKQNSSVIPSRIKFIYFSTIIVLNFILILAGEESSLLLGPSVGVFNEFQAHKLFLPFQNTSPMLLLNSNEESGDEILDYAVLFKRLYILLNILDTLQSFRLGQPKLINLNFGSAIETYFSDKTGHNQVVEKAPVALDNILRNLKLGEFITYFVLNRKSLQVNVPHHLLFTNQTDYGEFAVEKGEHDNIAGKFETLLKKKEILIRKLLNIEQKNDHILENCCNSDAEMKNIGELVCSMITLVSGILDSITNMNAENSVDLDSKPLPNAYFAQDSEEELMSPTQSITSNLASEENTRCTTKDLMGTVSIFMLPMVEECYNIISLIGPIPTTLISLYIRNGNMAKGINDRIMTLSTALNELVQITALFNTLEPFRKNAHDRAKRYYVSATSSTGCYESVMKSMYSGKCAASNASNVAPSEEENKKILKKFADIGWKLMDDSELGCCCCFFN
How it was run: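 The E-score, a modified Wilcoxon-Mann-Whitney statistic, was computed by the Universal PBM Analysis Suite for every ungapped eight-base word pooled with its reverse complement. Scans behind it were normalised with masliner after bound GST-tagged yeast transcription factors were detected with fluorescent anti-GST. The proteins, at about 100-200 nM, had been applied to universal all-10-mer Agilent arrays made double-stranded by primer extension.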

Sequence | PBM E-score
CCCGTCTA | -0.00318
CATTACCG | 0.00401
CGATTAAC | 0.103
GAGGGGAC | -0.243
ACACATCA | 0.0197
ACAGACCG | -0.105
AATCATGT | 0.0978
GGTCCTCA | 0.0869
AGGTGACA | 0.0143
ACATAACA | 0.127
AATGGCAG | -0.0191
AGTCACCA | -0.164
ATATTTGA | 0.213
ATGCCTTA | -0.0248
GAGTTTGC | -0.00724
CACTTAAG | 0.144
CTAAGCTC | -0.191
ACGGCCCT | -0.225
ATGGTGCG | -0.00722
GCCCATGA | -0.141
GCACGCCC | -0.155
GCTAAATA | 0.222
CTATCTTA | -0.026
CAAATGTA | 0.216
CCGGGTGC | -0.181

Sequence | PBM E-score
CTCAACAG | 0.0082
AGGTTACT | -0.034
CAGCGGAA | 0.0404
CAATATCA | 0.171
GTCAGAAC | -0.0207
CCGACCCG | -0.197
GACGATTA | -0.0748
GGAGTTAC | 0.202
AATCACAC | 0.112
GAAGACGC | -0.164
CACCCCGG | -0.21
TAGGCGCA | -0.108
CCATGGCA | -0.173
CACAATCG | 0.0764
ACCCGGGA | 0.078
GCGGAGTA | 0.0577
CCGCTAAC | -0.0857
GAAACAGC | -0.145
AATGGGCC | -0.259
ATCACAGC | 0.0343
CCCATCAC | -0.253
CGAGAAGC | -0.153
ACCGGTCG | -0.224
CTGTCATA | 0.0448
CCCTGATC | -0.244

Sequence | PBM E-score
ACTCCGCA | 0.0152
ACAGAACA | 0.253
CCTGCTAC | -0.116
AGGTCTGA | 0.0768
AGCAGTGG | 0.0536
GACGGAAC | 0.0393
TTATCCAA | 0.258
AACGCCGA | -0.0724
CTGCGACC | -0.0743
GGACAATA | 0.202
ATAGCGGA | 0.0982
CTAGCTTA | 0.107
AGCGGAAC | 0.14
GACAGCGC | -0.0316
CCTTGCCG | -0.227
ACTCGAGG | -0.117
AGAAAAAT | 0.269
AAGAGGCA | -0.0229
GTTGTATA | 0.0745
AAGTAGCT | 0.0343
AGAACAAG | 0.212
AATGATCC | 0.421
AGTTAGAG | -0.0838
CTGTTTCC | 0.0114
CACGTGCC | -0.243

Sequence | PBM E-score
CCAAGCAA | 0.106
GTTAGTGA | 0.107
AGAATTGA | 0.14
AAAGTCGG | -0.122
ACGTGTGC | -0.152
CCTGTAAC | -0.00887
GCCATAGC | -0.116
AAATCATC | 0.205
AAAAATGT | 0.22
AGACTCTG | -0.108
CCCAACAC | -0.132
CACTATGA | 0.0588
ACTATAAT | 0.23
AGGAAATC | -0.0432
CCACAAAA | 0.165
ACGTTGCG | -0.0283
ACCCTTCC | -0.0151
CAGATTCA | -0.0416
GTGGTAAA | 0.0442
GATTCTGC | 0.0635
ACTTCGGC | 0.0421
ATCAAACG | 0.0557
GCGATCGA | -0.038
GCTAATTA | 0.175
ATCCCGAT | 0.0252

Sequence | PBM E-score
ATTGAAAA | 0.289
ATTACTGC | 0.225
AGCTCCCA | -0.267
GTAGAGAA | 0.0434
CCAACTAA | 0.21
AAAAACTC | 0.19
CCAGAATA | 0.0783
AACATCTA | -0.0243
ACCGTGCA | -0.154
CCACTTCA | -0.0798
CACGGTCC | -0.282
CTTTAGCA | -0.044
CGGAAGAC | 0.00735
AAGTTGGA | 0.0901
ACATGTGG | 0.202
GCCTTAAA | 0.0714
ACGCCCAT | -0.0933
CATCAGAC | -0.0601
CACTATTA | 0.026
CGGTTTAA | -0.124
CGTTAGGA | 0.0877
GCAGAAAA | 0.227
CCATGAGG | -0.216
CGATATTA | 0.336
ACCCATGG | -0.203

Sequence | PBM E-score
CTTTCATC | -0.0337
TCATACGA | 0.11
CGCGGCCC | -0.288
GAGCTGAC | 0.0999
AACGTAAG | -0.012
CTTGCAGC | -0.0792
GATTCTGA | 0.136
ATCTTTAC | 0.203
CAATACTG | 0.0464
CACCTACA | -0.157
GCAAGCTA | 0.0445
ATTAGATC | 0.0257
AACTGACT | 0.0811
GCGTACAC | -0.12
ATCGGATG | -0.0464
ACTACAAA | 0.232
TTAGCTAA | 0.0309
ACCACAAG | -0.0473
CGGTCCGC | -0.267
ATTGCGTG | 0.079
ACGATCCG | -0.0459
GGTCGAGA | -0.114
ATGTCGAG | -0.113
TAATCGTA | 0.214
CCCAAAAA | -0.19

Sequence | PBM E-score
AGAGGATC | -0.0233
TCCTGAGA | -0.049
AAGTAATA | 0.0769
GCACACAC | -0.0996
GTCCACAA | 0.0077
CCGCCTAC | -0.114
ACCTAATG | -0.141
AGTTCAAT | 0.0607
CCAAGAAC | -0.122
AGCGAAAA | 0.144
ATGGCCAG | 0.0317
TCAACGAA | 0.0502
CAATCTTA | 0.148
AACGCGGT | -0.0462
ACTTTCCC | -0.00052
CTTGTTTA | 0.18
GTATGCCA | -0.188
ACCTTGCA | -0.0761
CCGTGATC | -0.192
ACCAGCGG | -0.0315
CCCTTTCC | -0.192
ACCAACAA | 0.284
